Over roughly 33,000 sequences, “E-score (-0.5 to 0.5)” has its median near -0.032; the highest 2% begin near 0.36. The list shows a part of the results.

The assay addresses T1, Sko1 (UniProt Q02100).
T1 sequence: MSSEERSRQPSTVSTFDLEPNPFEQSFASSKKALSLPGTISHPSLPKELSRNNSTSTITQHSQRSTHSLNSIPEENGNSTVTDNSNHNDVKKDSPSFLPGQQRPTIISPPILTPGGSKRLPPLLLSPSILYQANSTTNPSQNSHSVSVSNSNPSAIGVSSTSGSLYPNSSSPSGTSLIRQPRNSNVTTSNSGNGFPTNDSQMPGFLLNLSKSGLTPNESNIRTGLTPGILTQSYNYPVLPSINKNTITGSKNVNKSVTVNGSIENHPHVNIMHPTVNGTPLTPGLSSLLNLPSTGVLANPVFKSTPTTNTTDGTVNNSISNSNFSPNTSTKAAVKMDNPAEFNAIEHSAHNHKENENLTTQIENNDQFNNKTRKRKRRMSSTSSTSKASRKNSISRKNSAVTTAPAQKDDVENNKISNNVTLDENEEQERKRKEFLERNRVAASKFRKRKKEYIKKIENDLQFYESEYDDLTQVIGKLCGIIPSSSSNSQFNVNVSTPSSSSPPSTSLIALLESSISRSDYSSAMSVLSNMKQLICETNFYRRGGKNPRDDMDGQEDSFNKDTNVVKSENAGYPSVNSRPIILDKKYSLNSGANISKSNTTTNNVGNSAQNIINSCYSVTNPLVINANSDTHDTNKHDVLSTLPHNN
As to the kind of experiment: PBM E-score (8-mer binding enrichment) (E-score (-0.5 to 0.5)); higher = stronger / more preferred TF binding; most listed sequences are background and not binding sites. As to conditions: protein concentration: 200 nM; construct: GST-full length. The procedure, abridged:
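Each ungapped eight-base word and its reverse complement, pooled, received an E-score from the Universal PBM Analysis Suite. Underlying scans, normalised with masliner, recorded fluorescent anti-GST bound to GST-tagged yeast transcription factors. These were applied at about 100-200 nM to universal all-10-mer Agilent arrays double-stranded by primer extension.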
For the sequence ACGCTAAC, the “PBM E-score” value stood at 0.13.

In the case of GCGACCGC, the “PBM E-score” value is -0.172.

Turning to GCAAGATA, the “PBM E-score” value turned out to be 0.0422.

Regarding CCTGTGGA, the “PBM E-score” value was -0.362.

As to ACCCCGCG, the “PBM E-score” value is -0.251.

Turning to GTAGCAGA, the “PBM E-score” value was found to be 0.124.

For CCCCCAAC, the “PBM E-score” value was -0.0878.

In the case of AAGGAAGC, the “PBM E-score” value is -0.202.

For the sequence TAGAACCA, the “PBM E-score” value was found to be 0.0486.

As to GACGCCAC, the “PBM E-score” value was found to be 0.255.

For the sequence ATCGGACC, the “PBM E-score” value is -0.227.

In the case of ATTTAGAG, the “PBM E-score” value amounted to 0.117.

For AAGCGTTA, the “PBM E-score” value was 0.00636.

For CAATTTGC, the “PBM E-score” value is -0.0265.

Turning to GCCCTTCC, the “PBM E-score” value is -0.252.

Turning to AGTGAGTC, the “PBM E-score” value was -0.0481.

In the case of ACCTCAGT, the “PBM E-score” value was -0.0574.

In the case of AGGGTCGA, the “PBM E-score” value is -0.215.

Turning to AGCAGTGA, the “PBM E-score” value is 0.1.

Regarding CCTCAAAG, the “PBM E-score” value was -0.238.

For ATGGTGGA, the “PBM E-score” value is -0.213.

For AACTGTCT, the “PBM E-score” value is -0.15.

Consider CCGTTTAG, for which the “PBM E-score” value was -0.134.

Take ATATGCAG: the “PBM E-score” value was -0.161.

As to GCTGGTCA, the “PBM E-score” value was -0.204.

AGTCTACA: the “PBM E-score” value is -0.124.

On to AGGGGGCG, for which the “PBM E-score” value was -0.381.

For the sequence CAACTGTG, the “PBM E-score” value is -0.0987.

With AGTTCAAC, the “PBM E-score” value is 0.00417.

Take ATACTCAA: the “PBM E-score” value came to 0.13.

As to CATACGAC, the “PBM E-score” value stood at 0.261.

Turning to CTCCAACA, the “PBM E-score” value was -0.013.

On to CATTAGGC, for which the “PBM E-score” value is -0.0503.

With CATGCCGA, the “PBM E-score” value was -0.0359.

As to CTCTATAC, the “PBM E-score” value is -0.151.

For AGCGCTAA, the “PBM E-score” value was determined as 0.135.

Turning to ACCGTTTA, the “PBM E-score” value came to 0.00615.

For the sequence AAGTTAAG, the “PBM E-score” value was -0.0113.

With ATTAGTGG, the “PBM E-score” value turned out to be 0.0231.

As to TCTAGAAA, the “PBM E-score” value was -0.0193.

Consider TAATACGA, for which the “PBM E-score” value came out at 0.327.

CAATCCCC: the “PBM E-score” value is -0.112.

In the case of AGACCTAA, the “PBM E-score” value was -0.112.

On to GATATGAC, for which the “PBM E-score” value was 0.326.

Turning to GGACTCCC, the “PBM E-score” value was -0.288.

For the sequence AAATACAG, the “PBM E-score” value is -0.03.

As to AATGTGGT, the “PBM E-score” value was 0.0895.

Regarding TAACAAGA, the “PBM E-score” value was -0.0496.

Consider AATAACCC, for which the “PBM E-score” value is -0.148.

For the sequence CGGACTCA, the “PBM E-score” value is -0.134.

Take ATGCAGTG: the “PBM E-score” value was determined as 0.118.

Take AATTCGCT: the “PBM E-score” value amounted to 0.257.

AGCGTGAG: the “PBM E-score” value is -0.109.

Take AGGGCTTA: the “PBM E-score” value was -0.0822.

In the case of ACCTTCCA, the “PBM E-score” value was determined as 0.0421.

Consider ACGACCTA, for which the “PBM E-score” value worked out at 0.112.

In the case of TCACGCAA, the “PBM E-score” value stood at 0.384.

Take CGTCACTC: the “PBM E-score” value came out at 0.418.

For the sequence AGGGGCTA, the “PBM E-score” value was -0.209.

Turning to CGTGCCAA, the “PBM E-score” value is -0.0406.

With GAGCTGTA, the “PBM E-score” value was -0.172.

With CCCTGTTA, the “PBM E-score” value is -0.0267.

Regarding GGCGGCAC, the “PBM E-score” value is -0.224.

For the sequence AGTGGTGG, the “PBM E-score” value is -0.0736.

Consider AAATAAAT, for which the “PBM E-score” value was determined as 0.304.

For CATGTGCG, the “PBM E-score” value was determined as 0.125.

On to TATAGATA, for which the “PBM E-score” value was 0.0243.

For CTGGGTCA, the “PBM E-score” value is -0.128.

ATTCAACG: the “PBM E-score” value is 0.151.

For the sequence ATTGTAAA, the “PBM E-score” value was determined as 0.155.

For the sequence ACCTATAC, the “PBM E-score” value is 0.0679.

Take ATGGACTC: the “PBM E-score” value was -0.147.

With GGCCTGCA, the “PBM E-score” value is -0.325.

In the case of ATACTTAG, the “PBM E-score” value is -0.0209.

As for AGTTTTCG, the “PBM E-score” value stood at 0.0459.

Turning to GGGGCAAC, the “PBM E-score” value was -0.149.

CCCTCATA: the “PBM E-score” value was -0.212.

As for GCATGGGC, the “PBM E-score” value is -0.189.

Regarding ATTTCTGA, the “PBM E-score” value was -0.108.

On to TACCACCA, for which the “PBM E-score” value was -0.0735.

With CTAAACGC, the “PBM E-score” value was determined as 0.0759.

With AAGCCCCC, the “PBM E-score” value was -0.439.

Consider ACCGTAAC, for which the “PBM E-score” value is -0.135.

For AGACTAAC, the “PBM E-score” value is -0.0356.

In the case of CGGACCAA, the “PBM E-score” value was -0.0377.

GGGAGTTA: the “PBM E-score” value was -0.113.

These data come from the supplement of paper PMC3334620.
